Where “and” joins values, the source holds several entries; their conditions need not be identical. Equal entries are not always repeated.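 Step 1: Grow cells in 96-well plates. Step 2: Expose to compound for 48 hours at 5 concentrations. Step 3: Interpolate endpoints linearly; if unreached, use highest concentration. Abbreviation: GI50, concentration required for 50% inhibition of growth. TGI is the concentration that stops growth completely.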

This assay has as its system NCI-H322M lung. Kind of assay: NCI anticancer screen, dose series, 48 h.
`Cc1nc2ccccc2n1Cc1ccc(NC(=S)NC2CCCCC2)cc1`: the TGI is greater than 100 µM.

As to `Cc1nc2c(ccc3[nH]c4ccccc4c32)s1`, the TGI was greater than 100 µM. Still for that read-out and setting: with `CCN(CC)[C@@H]1c2cc3c(cc2C(c2cc(OC)c(O)c(OC)c2)C2C(=O)CO[C@@H]21)OCO3` (some centres undefined) the figure was greater than 100 µM; with `CN1CCN(C(=S)N(C(=O)c2ccc(Cl)cc2)C2CCCCC2)CC1`, greater than 100 µM. Still for that read-out and setting: to `COC(=O)C1=C(C(=O)OC)C2CCC1CC2=O` (centres undefined) belongs greater than 100 µM. In the case of `CCCCCCCCCCCC(=O)[O][Sn]([CH2]CCC)([CH2]CCC)[CH2]CCC`, the GI50 was 0.0692 µM and the TGI is 0.199 µM.

`COc1cc(-c2nc3cc(Cl)c(Cl)cc3[nH]2)ccc1OCC(=O)N=Nc1c(O)[nH]c2ccccc12`: the GI50 is 1.11 µM and the TGI amounted to 2.61 µM.

Consider `O=CN/C=C\c1cc(O)ccc1O`, for which the TGI is greater than 100 µM.

As for `O=c1c(-c2nc3ccccc3[nH]2)cc2ccccc2n1Cc1cn(Cc2ccc(F)cc2)nn1`, the GI50 was 0.421 µM and the TGI is greater than 100 µM.

In the case of `CC(NC(=O)C1(N)CCCC1)C(=O)O` (centres undefined), the TGI was greater than 100 µM. The same measure, in the same setting: with `COC(=O)C(Cc1cc(OC)c(OC)c(OC)c1)(NC(=O)c1ccccc1)P(=O)(OC)OC` (centres undefined) the figure was greater than 100 µM; with `O=Cc1ccc(Oc2c3ccccc3nc3ccccc23)cc1`, 26.8 µM; with `O=C(CCCN1CCC(Nc2ccc(F)cc2)(c2nnnn2C2CCCCC2)CC1)c1ccc(F)cc1`, 19.1 µM. For the molecule `CCc1cc(Cc2cc(CC)cc(C(C)(C)C)c2O)c(O)c(C(C)(C)C)c1`, the GI50 was 2.71 µM and the TGI came to 8.83 µM. As to `O=C1CCCC1C(O)(C(F)(F)Cl)C(F)(F)Cl` (centres undefined), the TGI was greater than 10 µM.

Consider `CCOc1ccc(-n2cc(-c3ccc(N(C)C)cc3)[n+]3c2CCCCC3)cc1`, for which the GI50 was 3.56 µM and the TGI is greater than 100 µM. `O=C1CSC2(CC(/C=C/c3ccccc3[N+](=O)[O-])=NN2c2cccc(S(=O)(=O)O)c2)N1c1nc2ccccc2s1` (centres undefined) registered a TGI greater than 75 µM. Still for that read-out and setting: to `O=c1ccc2c(Cl)sc(Cl)c2[nH]1` belongs greater than 100 µM. Regarding `COc1ccc(S(=O)(=O)Nc2c(/C=C\c3cc(OC)c(OC)c(OC)c3)ccc(OC)c2O)cc1OC`, the GI50 is 0.631 µM and the TGI is greater than 100 µM. For `COC(=O)C1=CCS(=O)(=O)C1`, the TGI is greater than 100 µM. As for `COc1ccc(-c2c(C#N)c(N)n(C3OC(COC(C)=O)C(OC(C)=O)C(OC(C)=O)C3OC(C)=O)c(=S)c2C#N)cc1` (centres undefined), the GI50 was 64.6 µM and 25.1 µM; the TGI was > 100 µM and 67 µM. Molecule `COC(=O)CCC(=O)c1ccc2c(c1)CC1(Cc3ccccc3C1)C2` yielded a TGI greater than 100 µM.

As to `COc1ccc2c(C(=O)NCCCCCC(=O)O)cc3cc4c(cc3c2c1)OCO4`, the GI50 is greater than 100 µM and the TGI was greater than 100 µM. For `CC(=O)NC1C(OCc2ccccc2)OC(COC(=O)CCCCCCCCCCNC(=O)CCNc2ccc([N+](=O)[O-])c3[nH]c4ccc(O)cc4c(=O)c23)C(O)C1OC(C)C(=O)N[C@H](C(=O)N[C@H](CCC(=O)O)C(N)=O)C(C)C` (some centres undefined), the TGI was greater than 100 µM. The molecule `c1ccc2c[n+](Cc3ccnc4ccccc34)ccc2c1` came in with a TGI greater than 100 µM. Regarding `CNC(=S)c1nnsc1N`, the TGI was greater than 100 µM. With `FC1(F)SC2CCCCCCCCCCC2C1(F)F` (centres undefined), the TGI was greater than 100 µM. Consider `COc1ccc(-c2nn(C(=O)c3cc(OC)c(OC)c(OC)c3)c3cc(N)ccc23)cc1`, for which the GI50 is 0.108 µM and the TGI turned out to be 20.5 µM. As to `CCOC(=O)C(/C=N/C(N)=S)=C(/O)c1ccccc1`, the TGI is greater than 100 µM.

Molecule `COc1ccc(/C=C2\CCC(CN(C)C)C2=O)cc1` (centres undefined) gave a TGI of 30.8 µM. On the same count and under the same terms, with `COc1ccc(/C=C/C(=O)N[C@@H]2C(=O)N3[C@@H]2SC(C)(C)[C@@H]3C(=O)O)cc1OC` the figure was greater than 100 µM; with `Cc1cccc2c1CC1(Cc3c(C)cccc3C1=O)C2=O`, greater than 100 µM; with `O=C1CN2CCN(CC2)CC(=O)Nc2ccc(cc2)S(=O)(=O)c2ccc(cc2)NC(=O)CN2CCN(CC2)CC(=O)Nc2ccc(cc2)S(=O)(=O)c2ccc(cc2)N1`, greater than 100 µM. On the same count and under the same terms, with `CC1(C)C(=O)C2(N)CCC1C2` (centres undefined) the figure was greater than 100 µM; with `CSc1cc(Cl)c(C)cc1S(=O)(=O)NC(=O)NNc1cnc2ccccc2n1`, greater than 100 µM; with `Cc1cccc(C)c1NC(=O)/C(CC(=O)CC(c1ccccc1)c1c(O)c2ccccc2oc1=O)=N/O` (centres undefined), greater than 100 µM. The same measure, in the same setting: with `COc1ccc(-c2nc3ccccc3c(=O)[nH]2)cc1OC` the figure was greater than 100 µM. As for `Cc1nc(N(C)C)nc(-c2cccc(-c3ccn(CCN(C)C)n3)c2)c1C`, the GI50 is greater than 20 µM and the TGI was greater than 20 µM. On to `CC/C(=C(/c1ccc(Cl)cc1)c1ccc(OCCCN(C)C)cc1)c1ccc(OC)cc1`, for which the GI50 is 6.43 µM and the TGI is 13.2 µM. In the case of `COC(=O)CC(c1ccccc1)C(C#N)(OP1(=O)OC(c2ccccc2)C(C)N1C)c1ccccc1` (centres undefined), the TGI is greater than 100 µM. Same read-out and setting: with `COc1ccc(-c2c3c(n(C4OC(COC(C)=O)C(OC(C)=O)C(OC(C)=O)C4OC(C)=O)c(=S)c2C#N)CCCC3)cc1` (centres undefined) the figure was greater than 100 µM. As for `N[C@@H](Cc1ccc(N(CCCl)CCCl)cc1)C(=O)O`, the GI50 was 52.4 µM; the TGI was 98.4 µM and 199 µM. On to `CCOC(=O)/C(C#N)=C/c1[nH]c(C)c(C)c1C`, for which the TGI is greater than 100 µM. Still for that read-out and setting: with `COc1ccc(/C=C2/C(=O)C(c3ccccc3)N(c3ccccc3)C2=O)cc1OC` (centres undefined) the figure was greater than 10 µM. For the molecule `Clc1ccc2c(NCCCNCc3ccc4c(c3)OCO4)ccnc2c1`, the GI50 is 3.04 µM and the TGI worked out at 13.2 µM. The molecule `CC(C)(C)OC(=O)/C=C/[C@@H](CCC(=O)/C=C/[C@H](/C=C\CCCC(=O)O)NC1(c2ccccc2)c2ccccc2-c2ccccc21)O[Si](C)(C)C(C)(C)C` yielded a TGI of 36.7 µM. On the same count and under the same terms, to `COC(=O)c1cc(OCc2cc(OCc3ccc(Br)cc3)cc(OCc3ccc(Br)cc3)c2)cc(OCc2cc(OCc3ccc(Br)cc3)cc(OCc3ccc(Br)cc3)c2)c1` belongs greater than 100 µM; to `OC1/C(=C/c2ccccc2)CNC/C1=C\c1ccccc1` (centres undefined), greater than 100 µM. In turn, `CSc1c(C#N)c(=O)n(N)c2n[nH]c(C)c12` gave a TGI greater than 100 µM.

As for `O=C1COCCN1c1ccc(NCc2cn(Cc3ccc(F)cc3)c3ccccc23)cc1`, the GI50 was 8.42 µM and the TGI is greater than 100 µM. Regarding `CCCCCCCCC[C@@H]1C[C@H](O)[C@H](Cc2ccccc2)N1C(=O)OC(C)(C)C`, the TGI came out at 32.7 µM. On the same count and under the same terms, with `CN=C(NC#N)NCc1ccccc1` the figure was greater than 100 µM; with `CCC1(O)CC(c2ccccc2)N(C)C(c2ccccc2)C1` (centres undefined), greater than 100 µM; with `CCN(CC)CCCNc1c2cc(OC)ccc2nc2cccc([N+](=O)[O-])c12`, 0.414 µM. For the molecule `O=C(c1ccccc1)C(c1ccccc1)C1(O)C(=O)Nc2ccc(Br)cc21` (centres undefined), the TGI is greater than 100 µM. Same read-out and setting: to `FC(F)(F)c1ccc(N=NN2CCCC2)cc1` belongs greater than 100 µM; to `O=C1N(c2ccccc2)N=C2c3ccncc3C3=NN(c4ccccc4)C(=O)C123` (centres undefined), greater than 100 µM. Take `Cc1ccc(Sc2cc([N+](=O)[O-])cc(Sc3ccc(C)cc3)c2Sc2ccc(C)cc2)cc1`: the TGI was greater than 100 µM. Same read-out and setting: to `O=c1c2ccc(Br)cc2nc(-c2ccccc2)n1NC1OC(CO)C(O)C(O)C1O` (centres undefined) belongs greater than 100 µM.

Take `C=CCOc1ccc2c(c1)CC[C@@H]1[C@@H]2CC[C@]2(C)C(=O)/C(=N/O)C[C@@H]12`: the GI50 is 8.78 µM and the TGI was greater than 88.4 µM.

`NC(=O)NC(=O)c1cccc(C(=O)NC(N)=O)n1` displayed a TGI greater than 100 µM. For `Cn1cc(C2=C(c3cn(CCCN/C(N)=N\[N+](=O)[O-])c4ccccc34)C(=O)NC2=O)c2ccccc21`, the GI50 is 4.38 µM and the TGI amounted to 16.2 µM. As for `CC(C)[Si](CC1=CCCCC12C(=O)N(COCC[Si](C)(C)C)c1ccccc12)(C(C)C)C(C)C` (centres undefined), the TGI was greater than 100 µM. In the case of `CC1=NN(c2cccc(S(=O)(=O)O)c2)C2(C1)SCC(=O)N2c1nc2ccccc2s1` (centres undefined), the TGI was greater than 100 µM. Same read-out and setting: to `CC(=O)SC(C[N+](=O)[O-])c1ccccc1` (centres undefined) belongs 36.9 µM.

Take `COc1nc(C(Cl)(Cl)Cl)c(Cl)c(OC)c1Cl`: the GI50 was greater than 60.2 µM; the TGI was > 93 µM and 77.6 µM. Molecule `CC(C)N=C(NC#N)NS(=O)(=O)c1cnccc1NC1CCCCCCC1` showed a TGI greater than 100 µM. In the case of `COc1ccc(/C=N/C2=C(C#N)C(c3ccccc3)c3ccc4ccccc4c3O2)cc1` (centres undefined), the GI50 was 0.68 µM and the TGI is greater than 100 µM. In turn, `OC1OC2COC(c3ccccc3)OC2C(O)C1O` (centres undefined) returned a TGI greater than 100 µM. Molecule `Cc1cc2c(C=O)[nH]nc2c(C#N)c1C` showed a TGI greater than 100 µM. In the case of `Cc1c(OCc2cccc3ccccc23)ccc2c(=O)cc(S)oc12`, the TGI was greater than 100 µM. On the same count and under the same terms, to `O=C1CCC(=O)C12CCc1ccccc12` belongs greater than 100 µM. In the case of `COC(=O)/C=C/c1cc(OC)c2c(c1)[C@@H](C(=O)OC)[C@H](c1ccc(OC)c(OC)c1)O2`, the GI50 was 22.9 µM and the TGI was greater than 100 µM.

In the case of `Nc1nc(-c2ccccc2Cl)cc(-c2ccc(Cl)cc2Cl)n1`, the GI50 was 31.2 µM and the TGI was greater than 100 µM.

In turn, `COc1cc2oc(=O)cc(C)c2c(OC)c1OC` yielded a TGI greater than 100 µM. In turn, `NCCCCNCCCNC(=O)c1csc(-c2nc(CCN)sc2Cl)n1` came in with a TGI greater than 100 µM. Same read-out and setting: with `COc1ccc(/C=C2\NC(=S)N(CN3CCOCC3)C2=O)cc1` the figure was greater than 100 µM. Still for that read-out and setting: to `Nc1nc(=O)n(C2CC(O)C(CO)O2)c2nc(-c3ccc(-c4ccccc4)cc3)cnc12` (centres undefined) belongs greater than 100 µM. The same measure, in the same setting: with `NC1=C(O)/C(=N/NS(=O)(=O)c2ccccc2)C(c2cccc(Cl)c2)O1` (centres undefined) the figure was greater than 100 µM; with `COC1=C2C[C@](OC)(C#CC=CC#CC2O)CC1(C)C` (some centres undefined), greater than 100 µM; with `C[C@@H](Br)[C@@H]1CC[C@H]2c3[nH]c4ccccc4c3CCN2C1`, greater than 100 µM.

With `COc1cc(/C=C/C(=O)c2ccc(SC)cc2)cc(OC)c1OC`, the GI50 was 17 µM and the TGI was found to be 31.1 µM. Regarding `O=[N+]([O-])C(=C(\Cl)NCCO)/C(Cl)=C(/Cl)Br`, the TGI worked out at 28.4 µM.

With `N=C(N)c1ccc(-c2ccc(-c3ccccc3)o2)o1`, the GI50 is 2.12 µM and the TGI is 6.04 µM. On the same counts, the results for `Nc1c(S(=O)(=O)O)cc2c(c1Cl)C(=O)c1ccccc1C2=O` are greater than 100 µM and greater than 100 µM. In turn, `O=C(CN1CCOCC1)c1ccc2c(c1)oc(=O)n2CCN1CCCCC1` had a TGI greater than 100 µM.
